Consider 67 compounds from the supplement of paper PMC5919970.

Counter-ions that a name gives are not always drawn. The full ranking holds about 2,000 compounds; the median of “fractional viability relative to vehicle” is about 0.92, and the lowest 2% start at about 0.11. This is one part of the list.

This test concerns TYKNU. The experiment in a line: fractional viability relative to vehicle; TYKNU is a high-grade serous ovarian cancer line; higher = less growth inhibition. To be noted: 72 h, genotype: OPA1 knockout (sgOPA1 #2). The essentials: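 TYKNU control cells or lentiCRISPRv2 knockout derivatives were seeded at 500 cells per well into drug-stamped 384-well plates holding a ~2100-compound library at 2 or 10 μM, in duplicate. Cells were grown at 37 °C in 5% CO2 in RPMI 1640 with 10% FBS, and drug treatment lasted 72 h. Viability was read by Cell Titer Glo luminescence. Duplicate treatment wells were averaged and normalised to duplicate control wells from the same plate position.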

`CC(=O)Oc1ccc(C(c2ccc(OC(C)=O)cc2)c2ccccn2)cc1` [Bisacodyl]: the fractional viability is, setting by setting: (2uM) 0.973; (10uM) 0.841.
On to `CCOC(=O)CC(=O)N1CCSC1COc1ccccc1OC` (centres undefined) [Moguisteine], for which the fractional viability by setting is: (2uM) 1.06; (10uM) 0.798.
Regarding `N#CC[C@H](C1CCCC1)n1cc(-c2ncnc3[nH]ccc23)cn1`, the fractional viability is, setting by setting: (2uM) 1.05; (10uM) 0.842.
Turning to `CCCc1nn(C)c2c(=O)[nH]c(-c3cc(S(=O)(=O)N4CCN(C)CC4)ccc3OCC)nc12` [Sildenafil Citrate], the fractional viability reads like this: (2uM) 1.23; (10uM) 1.13.
`CN(C[C@@H]1COCCO1)S(=O)(=O)Nc1ccc2ccc3ncc(-c4cnn(C)c4)cc3c(=O)c2c1` showed a fractional viability (2uM) of 1.17 and a fractional viability (10uM) of 0.558.
Turning to `C[C@H](CS)C(=O)N1CCC[C@H]1C(=O)O` [Captopril], the fractional viability runs as follows: (2uM) 1.04; (10uM) 1.08.
In the same order, the values of `CN(Cc1cc(Br)cc(Br)c1N)C1CCCCC1` [Bromhexine HCl] are 0.995 and 0.985.
As for `Cn1cnc2c(F)c(Nc3ccc(Br)cc3Cl)c(C(=O)NOCCO)cc21` [Selumetinib (AZD6244)], the fractional viability runs as follows: (2uM) 0.809; (10uM) 0.561.
In the case of `Nc1nc(N)c2nc(-c3cccc(O)c3)c(-c3cccc(O)c3)nc2n1`, the fractional viability is 0.979 (2uM) and 1.03 (10uM).
In the case of `NCCc1ccc(O)c(O)c1` [Dopamine HCl], the fractional viability reads like this: (2uM) 0.661; (10uM) 0.373.
Take `CC[C@H](c1ccc(O)cc1)[C@@H](CC)c1ccc(O)cc1` [Hexestrol]: the fractional viability by setting is: (2uM) 1.07; (10uM) 0.798.
In the same order, the values of `Cc1c(Nc2ncccc2C(=O)O)cccc1C(F)(F)F` [Flunixin Meglumin] are 1.23 and 1.05.
The compound `OC[C@@H](O)CN1CCN(c2ccccc2)CC1` [Levodropropizine] returned a fractional viability (2uM) of 0.994 and a fractional viability (10uM) of 0.835.
Consider `N#CC1(c2ccc(NC(=O)c3cccnc3NCc3ccncc3)cc2)CCCC1` [Apatinib], for which the fractional viability by setting is: (2uM) 0.883; (10uM) 0.984.
Regarding `CC(ONC(=O)c1cc(C(F)(F)F)cc(C(F)(F)F)c1)C(=O)Nc1ccc(Cl)cc1` (centres undefined), the fractional viability reads like this: (2uM) 0.834; (10uM) 0.646.
Consider `CN1CCN(C(=O)c2cc3cc(Cl)ccc3[nH]2)CC1`, for which the fractional viability by setting is: (2uM) 1.08; (10uM) 1.08.
With `COc1ccc(CNc2nc(N3CCC[C@H]3CO)ncc2C(=O)NCc2ncccn2)cc1Cl` [Avanafil], the fractional viability was 0.967 (2uM) and 0.832 (10uM).
As to `COC(=O)N[C@H](C(=O)N1CC2(CC2)C[C@H]1c1nc(-c2ccc3c(c2)C(F)(F)c2cc(-c4ccc5[nH]c([C@@H]6[C@H]7CC[C@H](C7)N6C(=O)[C@@H](NC(=O)OC)C(C)C)nc5c4)ccc2-3)c[nH]1)C(C)C` [Ledipasvir (GS5885)], the fractional viability worked out at 0.795 (2uM) and 0.623 (10uM).
In the same order, the values of `CC(=O)OCC(=O)[C@@]1(O)CC[C@H]2[C@@H]3CCC4=CC(=O)C=C[C@]4(C)[C@H]3[C@@H](O)C[C@@]21C` [Prednisolone Acetate] are 1.15 and 1.17.
With `CCCCOc1ccc(C(=O)CCN2CCCCC2)cc1` [Dyclonine HCl], the fractional viability was determined as 1.06 (2uM) and 0.796 (10uM).
On the same counts, the results for `COc1ccc(CCC(=O)Nc2nc3ccc(Cl)cc3s2)cc1OC` are 0.989 and 1.04.
On the same counts, the results for `C=C1C(=O)O[C@H]2[C@H]1CC/C(C)=C/CC[C@@]1(C)O[C@@H]21` [(-)-Parthenolide] are 0.557 and 0.0743.
Turning to `O=[N+]([O-])c1cn2c(n1)OC[C@@H](OCc1ccc(OC(F)(F)F)cc1)C2`, the fractional viability (2uM) is 1.15 and the fractional viability (10uM) came out at 1.66.
In the same order, the values of `Cn1nnc2c(C(N)=O)ncn2c1=O` [Temozolomide] are 1.24 and 0.858.
In the same order, the values of `CC(C)(C)CC(C)(C)c1ccc(OCCOCC[N+](C)(C)Cc2ccccc2)cc1` [Benzethonium Chloride] are 0.76 and 0.234.
In the same order, the values of `C=CC[N+]1([C@H]2C[C@H]3[C@@H]4CC[C@H]5C[C@H](O)[C@@H](N6CCOCC6)C[C@]5(C)[C@H]4CC[C@]3(C)[C@H]2OC(C)=O)CCCC1` [Rocuronium Bromide] are 1.16 and 1.11.
Consider `Cc1ccc(C(=O)Cn2c3c(sc2=N)CCCC3)cc1` [Pifithrin-_ (PFT_)], for which the fractional viability (2uM) came out at 0.901 and the fractional viability (10uM) was 0.889.
On the same counts, the results for `CC(C)(C)NC(=O)[C@H]1CC[C@H]2[C@@H]3CC[C@H]4NC(=O)C=C[C@]4(C)[C@H]3CC[C@]12C` [Finasteride] are 1.16 and 1.01.
Regarding `Nc1nc(N)c2nc(-c3ccccc3)c(N)nc2n1` [Triamterene], the fractional viability worked out at 0.956 (2uM) and 0.8 (10uM).
In the same order, the values of `C=C1CC[C@H](O)C/C1=C/C=C1\CCC[C@]2(C)[C@@H]([C@H](C)/C=C/[C@H](C)C(C)C)CC[C@@H]12` [Vitamin D2] are 0.917 and 0.567.
For `CCS(=O)(=O)N1CCN(c2ccc(Nc3ncc(C(N)=O)c(NC4CC4)n3)cc2)CC1`, the fractional viability (2uM) was found to be 0.781 and the fractional viability (10uM) worked out at 0.496.
For `C[N+](C)(C)CC(O)CC(=O)[O-]` (racemic) [DL-Carnitine HCl], the fractional viability runs as follows: (2uM) 1.03; (10uM) 0.946.
In the same order, the values of `C[N+](C)(C)C[C@H](O)CC(=O)[O-]` [L-carnitine] are 0.815 and 1.07.
On the same counts, the results for `O=C(c1ccccc1)c1ccc2nc(NC(=O)c3csc(C4CCN(c5ncnc6ccsc56)CC4)n3)[nH]c2c1` are 0.98 and 0.988.
On the same counts, the results for `Cn1c(N2CCCCS2(=O)=O)nc(C(=O)NCc2ccc(F)cc2)c(O)c1=O` are 1.05 and 1.02.
Regarding `CC(C)c1nc(CN(C)C(=O)N[C@@H](CCN2CCOCC2)C(=O)N[C@H](CC[C@H](Cc2ccccc2)NC(=O)OCc2cncs2)Cc2ccccc2)cs1` [Cobicistat (GS-9350)], the fractional viability reads like this: (2uM) 1.01; (10uM) 0.896.
For the compound `Cc1cccc(-c2nn3c(c2-c2ccnc4ccc(C(N)=O)cc24)CCC3)n1`, the fractional viability is, setting by setting: (2uM) 1.03; (10uM) 1.22.
On the same counts, the results for `O=C(Nc1cccnc1)N1CCC(Cc2cccc(Oc3ccc(C(F)(F)F)cn3)c2)CC1` are 0.993 and 0.984.
As to `Cc1cc(C)nc(NS(=O)(=O)c2ccc(NC(=S)NC(=O)COc3ccc(Br)cc3Cl)cc2)n1`, the fractional viability runs as follows: (2uM) 0.956; (10uM) 0.803.
On the same counts, the results for `CN1C(C(=O)Nc2ccccn2)=C(O)c2sc(Cl)cc2S1(=O)=O` [Lornoxicam] are 1.05 and 0.985.
On the same counts, the results for `CC12CC3CC(C)(C1)CC(N)(C3)C2` [Memantine HCl] are 0.858 and 1.03.
In the case of `Cc1ccc(CNc2ncnc3ccc(-c4ccc(CO)o4)cc23)o1`, the fractional viability (2uM) is 0.989 and the fractional viability (10uM) amounted to 1.02.
Regarding `COc1ccc(-c2cc(=O)c3c(OC)c(OC)c(OC)c(OC)c3o2)cc1` [Tangeretin], the fractional viability is, setting by setting: (2uM) 1.11; (10uM) 1.37.
In the same order, the values of `O=C(O)c1ccc(C=C2SC(=S)N(c3cccc(C(F)(F)F)c3)C2=O)cc1` are 0.868 and 0.776.
In the same order, the values of `CCC[C@@H]1C[C@@H](C(=O)N[C@@H]([C@H]2O[C@H](SC)[C@H](O)[C@@H](O)[C@H]2O)[C@@H](C)O)N(C)C1` [Lincomycin HCl] are 1.03 and 1.17.
In the same order, the values of `N#Cc1c(Oc2ccc(F)c(NC(=O)Cc3cccc(C(F)(F)F)c3)c2)ccc2nc(NC(=O)C3CC3)sc12` are 0.396 and 0.335.
For the compound `CO[C@H]1C[C@@H]2CC[C@@H](C)[C@@](O)(O2)C(=O)C(=O)N2CCCC[C@H]2C(=O)O[C@H]([C@H](C)C[C@@H]2CC[C@@H](OC(=O)C(C)(CO)CO)[C@H](OC)C2)CC(=O)[C@H](C)/C=C(\C)[C@@H](O)[C@@H](OC)C(=O)[C@H](C)C[C@H](C)/C=C/C=C/C=C/1C`, the fractional viability is, setting by setting: (2uM) 0.826; (10uM) 0.664.
With `O=c1cc[nH]c(=O)[nH]1` [Uracil], the fractional viability runs as follows: (2uM) 0.887; (10uM) 0.853.
In the case of `Cc1ccc(C(=O)Nc2cccc(C(F)(F)F)c2)cc1Nc1nc(-c2cccnc2)nc2c1cnn2C`, the fractional viability (2uM) is 1.07 and the fractional viability (10uM) came to 0.407.
Regarding `CCOC(=O)N1c2ccc(C(F)(F)F)cc2[C@@H](N(Cc2cc(C(F)(F)F)cc(C(F)(F)F)c2)C(=O)OC)C[C@H]1CC` [Torcetrapib], the fractional viability runs as follows: (2uM) 1.01; (10uM) 0.857.
In the same order, the values of `COc1ccc(-c2cc(=O)c3c(OC)c(OC)c(OC)c(OC)c3o2)cc1OC` [Nobiletin] are 0.968 and 1.18.
In the same order, the values of `C[C@H]1C[C@H]2[C@@H]3CCC4=CC(=O)C=C[C@]4(C)[C@H]3C(=O)C[C@]2(C)[C@@]1(O)C(=O)CO` [Meprednisone] are 1.12 and 0.951.
On the same counts, the results for `Cc1ccc(S(=O)(=O)OCC(=O)Nc2ccc(C(=O)O)c(O)c2)cc1` are 1.19 and 1.02.
Take `O=C(O)CCCN1CCC(O[C@@H](c2ccc(Cl)cc2)c2ccccn2)CC1` [Bepotastine Besilate]: the fractional viability was determined as 1.14 (2uM) and 0.923 (10uM).
For `NNC(=O)c1ccncc1` [Isoniazid], the fractional viability stood at 1.01 (2uM) and 1.08 (10uM).
On the same counts, the results for `CC1(C)C=C(CN2C/C(=C\c3ccc(F)cc3)C(=O)/C(=C/c3ccc(F)cc3)C2)C(C)(C)N1O` are 0.837 and 0.79.
In the same order, the values of `COc1ccc(-c2ccc3cc(C(=O)O)ccc3c2)cc1C12CC3CC(CC(C3)C1)C2` [Adapalene] are 0.896 and 0.583.
Regarding `COc1cc2c(NC3CCN(CC4CCCCC4)CC3)nc(N3CCCN(C(C)C)CC3)nc2cc1OCCCN1CCCCC1`, the fractional viability came to 0.786 (2uM) and 0.0322 (10uM).
For the compound `O=C(O)c1cccnc1` [Nicotinic Acid], the fractional viability stood at 1.15 (2uM) and 1.03 (10uM).
Compound `CCCCc1oc2ccccc2c1C(=O)c1cc(I)c(OCCN(CC)CC)c(I)c1` [Amiodarone HCl] had a fractional viability (2uM) of 0.994 and a fractional viability (10uM) of 0.867.
As to `O=c1[nH]c(=O)n([C@H]2C[C@H](O)[C@@H](CO)O2)cc1I` [Idoxuridine], the fractional viability runs as follows: (2uM) 0.874; (10uM) 0.935.
On the same counts, the results for `CN1CCN(c2ccc3nc(-c4c(N)c5c(F)cccc5[nH]c4=O)[nH]c3c2)CC1` [Dovitinib (TKI-258, CHIR-258)] are 0.815 and 0.25.
`CN1CCN(c2ccc3nc(-c4c(N)c5c(F)cccc5[nH]c4=O)[nH]c3c2)CC1` [Dovitinib (TKI258) Lactate]: the fractional viability is 0.815 (2uM) and 0.0801 (10uM).
`C=CCNC1=C2C[C@@H](C)C[C@H](OC)[C@H](O)[C@@H](C)/C=C(\C)[C@H](OC(N)=O)[C@@H](OC)/C=C\C=C(/C)C(=O)NC(=CC1=O)C2=O` [17-AAG (Tanespimycin)]: the fractional viability is 0.652 (2uM) and 0.468 (10uM).
For `Cc1cccc(N(C)C(=S)Oc2ccc3ccccc3c2)c1` [Tolnaftate], the fractional viability (2uM) stood at 1.06 and the fractional viability (10uM) is 1.12.
In the same order, the values of `CCS(=O)(=O)c1cccc(-c2cc(C(=O)NC3CCN(C)CC3)c(C)c3[nH]c4ncc(C)cc4c23)c1` are 0.598 and 0.127.
On the same counts, the results for `COC(=O)[C@H](Cc1ccccc1)NC(=O)[C@@H](N)CC(=O)O` [Aspartame] are 1.06 and 0.956.
